# Data reported in PubChem BioAssay AID1347120 (National Center for Advancing Translational Sciences (NCATS), 2019).
# Hit rate of the full screen: of about 390,000 compounds, about 930 (0.24%) were called active. This list was built around the results that the source calls inconclusive (neither active nor inactive); the mix of calls is not that of the screen. Calls follow the shape of the dose curve; as a rule, active = well fitted activation curve with a large enough effect; inconclusive = small, poorly fitted or top-dose-only effect; inactive = no such curve, though single readings can be large or run the other way. Potencies beside an inconclusive call are fits to weak or partial responses and may not hold up.
# Assay: qHTS for Suppressors of FUS Proteinopathy: Primary screen using FUS-linked yeast assay; also: nearly all actives have a fitted effect of over 55% in size;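 as to growth rescue (activation): plate controls were DMSO vehicle for no effect and reference control for full effect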
# Details: S. cerevisiae FUS-expressing, OD600, 24 h; Potency: growth rescue; growth rescue (activation): at 76.6 µM (top of the series)
# Outline: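 Absorbance at 600 nm, taken 24hr after compound addition, measured rescue of FUS-yeast growth at 30C. Induction used 2% galactose with seeding at OD 0.005. Controls: CP55940 from 92uM final, DMSO only.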
# Potency is read from the fitted curve at half-maximal effect; tags tell the direction and shape of the fitted curve.
SMILES,Potency,growth rescue (activation)
COC(=O)[C@H](C(C)C)N1CCc2nnn(CC3CCCCC3)c2-c2cc(F)ccc2S1(=O)=O,"inconclusive: 31.6 µM [activator, partial curve, poor fit]",
COc1ccccc1NS(=O)(=O)c1ccc2oc(SCc3ccc(C#N)cc3)nc2c1,"inconclusive: 50.1 µM [activator, single point]",
COc1ccc(-c2nc(NC(=O)C3CC(=O)N(c4ccc5c(c4)OCCO5)C3)sc2C)cc1 (centres undefined),"inconclusive: 20 µM [activator, partial curve, poor fit]",
COc1ccc(NC(=O)CSC2=Nc3ccccc3C3=NC(Cc4ccccc4)C(=O)N23)cc1 (centres undefined),"inconclusive: 31.6 µM [activator, single point]",
Cn1cc(CNCc2ccc(OC(F)(F)F)cc2)c(-c2ccc3c(c2)OCCO3)n1,"inconclusive: 22.4 µM [activator, partial curve, poor fit]",
Nc1c(C(=O)NCc2ccco2)sc2nc(N3CCOCC3)c3c(c12)CCCC3,"inconclusive: 56.2 µM [activator, partial curve, poor fit]",
Cc1nn(-c2cc(N3CCOCC3)ccc2N)c(=O)c2ccccc12,inactive,
COc1cccc(C#Cc2ccc3c(c2)O[C@@H](CN(C)C(=O)c2ccccn2)[C@@H](C)CN([C@H](C)CO)S3(=O)=O)c1,"inconclusive: 28.2 µM [activator, single point]",
OC[C@@H]1CN(Cc2cccc3ccccc23)C[C@H](n2cnc3c(NCc4ccco4)ncnc32)O1,"inconclusive: 35.5 µM [activator, single point]",
N/C(=N\OC(=O)c1cc([N+](=O)[O-])ccc1Cl)c1cccnc1,inactive,
O=C(CN1CCN(S(=O)(=O)c2ccccc2F)CC1)N1CCc2ccccc2C1,inactive,
Cc1ccccc1N1CCN(C(=O)c2cc(C3CC3)nn2-c2ccccc2)CC1,inactive,
O=C(COc1ccc(-n2cnnn2)cc1)N1CCN(c2ccc(F)cc2)CC1,"inconclusive: 12.6 µM [activator, partial curve, poor fit]",
CCn1c(=O)c2sccc2n2c(CCCC(=O)Nc3ccc(C)cc3)nnc12,inactive,
Cc1noc(C)c1S(=O)(=O)N(C)C[C@H]1OCc2cnnn2CCCC(=O)N([C@@H](C)CO)C[C@H]1C,inactive,
CCCCN1C(=O)C(NC(=O)c2ccc(C(C)(C)C)cc2)(C(F)(F)F)C(C(=O)OC)=C1C (centres undefined),"inconclusive: 50.1 µM [activator, single point]",
Cc1cccc(COCC(Cc2ccccc2)N2CCN(C(=O)c3cccc(C)c3)CCC2=O)c1 (centres undefined),"inconclusive: 25.1 µM [activator, partial curve]",
COc1ccc(/C=C2\C(=O)ON=C2c2ccccc2)cc1OC,inactive,
CC(=O)c1ccc(N2C(=O)N(Cc3ccc(F)cc3)c3ccccc3S2(=O)=O)cc1,"inconclusive: 28.2 µM [activator, partial curve, poor fit]",
Cc1ccc(CNc2nc(Cl)c(C#N)s2)cc1,inactive,
O=C(O)C1C2C=CC(C2)C1C(=O)NCc1ccc(Cl)c(Cl)c1 (centres undefined),inactive,
COc1ccc(OC)c(C(=O)CN2C(=O)N(c3cc(C)cc(C)c3)S(=O)(=O)c3ccccc32)c1,"inconclusive: 31.6 µM [activator, single point]",

SMILES,Potency,growth rescue (activation)
CC(C)C(=O)N[C@H]1CCC2C3CC=C4C[C@@H](O)CC[C@]4(C)C3CC[C@@]21C (some centres undefined),inactive,
COC(=O)c1sc(S(=O)(=O)NCC(=O)O)c(C(=O)OC)c1C,inactive,
O=C(CCn1c(=O)c2cccn2c2ccc(F)cc21)NCCc1ccc(Cl)cc1,inactive,
N#CCC[C@H]1CC[C@]2(CCCN(C(=O)c3ccc4ccccc4n3)C2)O1,inactive,
CC(=O)c1cc(C#N)c(SCc2ccc(F)cc2)nc1C,"inconclusive: 11.2 µM [activator, partial curve, poor fit]",
CC(=O)N(C(C)=O)C1=C(C#N)C2(CCCCC2)Cc2ccccc21,,inconclusive: 69.6% [activator]
COc1ccccc1CCNC(=O)c1cc(C2CC2)nc2c1cnn2C(C)C,"inconclusive: 25.1 µM [activator, partial curve]",
CCc1nnc(NC(=O)C2Cc3ccccc3CN2S(=O)(=O)c2ccc(C)cc2)s1 (centres undefined),active: 14.1 µM,
C=CC[C@H](CC(=O)NCCO)C(=O)N[C@@H](COC(=O)[C@@H](CC=C)CC(=O)OC(C)(C)C)Cc1c[nH]c2ccccc12,"inconclusive: 15.8 µM [activator, partial curve]",
O=C1CC(=Nc2ccccc2)NN1c1ccccc1,active: 12.6 µM,
COc1ccc(N2CCN(c3ncnc4c3nc3n4CCCCC3)CC2)cc1,inactive,
CC(=O)N1CCN(S(=O)(=O)c2cccc(C(=O)N(Cc3ccccc3)c3ccc(C)cc3)c2)CC1,inactive,
Cc1cc(C)nc(/N=C(\N)Nc2ccc(C)c([N+](=O)[O-])c2)n1,inactive,
CN(C)S(=O)(=O)c1cccc(NC(=O)c2cccc(S(=O)(=O)N3CCc4ccccc43)c2)c1,"inconclusive: 8.91 µM [activator, partial curve]",
COCCCNC(=O)Cc1c(C)c2c(cc(C)c3c(C(C)(C)C)coc32)oc1=O,active: 31.6 µM,
COc1ccc(COc2cc(-c3cccc(OC)c3)nc3ccc(N)cc23)cc1,"inconclusive: 31.6 µM [activator, single point]",
Cc1ccc(OCC(=O)NNC(=S)NC(=O)c2ccc(Br)o2)c(C)c1,inactive,
COc1ccc(OC)c(NC(=O)Cn2nc3c(cc2=O)CCCC3)c1,inactive,
COc1ccc(Cn2cc(CN3CC=CS3(=O)=O)nn2)cc1,inactive,
Cc1nc(-c2cccc(NC(=O)c3cccc(S(=O)(=O)N4CCCC4)c3)c2)cs1,"inconclusive: 31.6 µM [activator, single point]",
CCc1ccc(NC(=O)CC2C(=O)N(c3cccc(C)c3)C(=O)N2Cc2cccc(OC)c2)cc1 (centres undefined),"inconclusive: 31.6 µM [activator, single point]",
Cc1ccnc(NC(=O)CNC(=O)Cc2cccc3ccccc23)c1,"inconclusive: 35.5 µM [activator, partial curve, poor fit]",
